Whole data set: some 4,500 sequences, median “median log2 fold change of GCK-ALFA target abundance (FLAG IP / Myc IP barcode read proportion)” near 0.078, cut for the lowest 2% near -0.6. The list shows a part of the results.
B1: GBRAP_160_4054 (protein)
chain: GEEKEELKKMVDEAREEIKEVIDEEGAEAAAVMAAGEFGAIIMEAAELPTASDELVDALDEIRDDLVARLEANRDAPPEELKAIVDEAAEKAKKAIEEHM
B2: GBRAP_160_4596 (protein)
chain: SAEAEKLKKRLKEIVEEAKELIEGETHEQRLVIIRVMVGDILLELDESPLASDELQEKAAEIGDELVETVESNPELTEEEIKKLIEEMLEKILKAIDEEV
B3: GBRAP_160_4665 (protein)
chain: SEEVEKTLEEIRELLLEALEWARTESPENRRAILRTTVGDVVLILEENPLATDEVIDLADELGEEMAEYVLANPDLTPEEREALVEEFVEKIREAILASQ
B4: GBRAP_78_6657 (protein)
chain: KVEEALEEADRAAREALEKAKKISPELAELAAETEVLVGNALLLYEIEKASPEEILKEVEEALKAAEELAKKAKKEDEELAKLAEELIKKLEELKKLLKE
B5: GBRAP_80_6755 (protein)
chain: ALEELEENLKELIELLPEEGTRLKEVLERALAAGVPAKDVARLVKALVELAKLDLEKARELATRFIERLTEELDAGDLEGVRGEIVDAESDALLEVEELE
B6: GBRAP_53_6420 (protein)
chain: MEERLRELRERILRLAREAGRAGPAETLALVEEIGRLLAELKEAGASDEEITELAREVARELKAAGAPDSALVALANHLAALGLEDATAEVVELIVEDLE
B7: GBRAP_160_4795 (protein)
chain: SERVEKVAEIFREEGERALEMSEGESVENRVAIFDVEFGSAIMEAIDLGLLNDEEEEVAVEVRDELVAEIRANPDLTPEELRALIERKVEELRERLEELE
B8: GBRAP_160_4513 (protein)
chain: EEKLKEIFEEIEEAREEILESLDENNVEETIITAEVELGEVIMELAEDESASDEAVDAAAEVRDKLVEELKKNKNASKEELKKIIEEKTEELKKKLKKLF
B9: GBRAP_160_4435 (protein)
chain: SAKLEEAKKRIKEIAEEAAKMMEGQSAEERITVVRVMEGEIILELEELGLLTDELDELIDKSAEEIIETIKANPNISQEELKEMLEKMVEEITKLLEKEF
B10: GBRAP_137_3673 (protein)
chain: MIDAEIEIEDGLAYATLTYKGDLAEAERAAKVAEEIAAEIPGLAISTAVSDDGTLTIDVGGTLEQVMEFLKALAKRLGVTVNVTIKDEDTGETTKETIKA
B11: GBRAP_117_2589 (protein)
chain: SSLREEALKKLRELAERVREALERLKTLSEEERKKLLEELLEETKELLEELLEKLSEEEVWELIDEVAAELDTETYFRFESLVAEALARIKEEREKEELE
B12: GBRAP_83_6921 (protein)
chain: KEEITVAANSDNIEEAFDAAIDLHKNEGYEVSIDVIVKREDIPTLLKAFEKLAKAGVETKLRILLLGATEEEAEELKKKLEEIAKKYGVKIEVEVEAIEE
B13: GBRAP_80_6781 (protein)
chain: AEARIEAEIARVAAIDPELAARLREILAKLRAKGASPAVMAAFAELVAEIARALELGLTEEAREAVEEAEEAAELEDEAERLAMLAGIAGDVLLAVEEAE
B14: GBRAP_26_5495 (protein)
chain: KLEEIIKKLEEELKKILKDESEELRAAVIAEAIDLLLEADEIFEENLDDEEKREKAIEEATKELEELLKDFGLSEEKIEKVVEALRKAMEERLEALKKER
B15: GBRAP_26_5477 (protein)
chain: LEEIERKTLEEIAALLATLPDPDLAAAALAEATTIIIEAIEKMEENKDDEEKLEKIVEEAVKELEEALKELGVPEDVRKKVVEKARKGLEEAKKKILEES
B16: GBRAP_172_5004 (protein)
chain: MVTLVELDLLGLSTEEAVARAVAALRAAAAATGGPIVVAVVTDTQETADAVEAALEAEAAELGREVTVVADAYRSEADRARVLAAARAEAIDLAHELEEE
B17: GBRAP_131_3608 (protein)
chain: LKGLLATIDEDLSVEEALARVDAILDEAIARGYDAVVIRLVGQSAEVYDAAEDRVDEREEELEREHGMRVVVLPPGTTEAEAQAVLEALLLEIELEREEE
B18: GBRAP_160_4489 (protein)
chain: MEKLKEAKEEVRELVELAVEAIAEEKDDSRRQIARAFAGEIAQTLKELGVVTEEQEDEALELAEAGMEAIVAASEAGPAAMEAAAAALVAELEAFLKEAA
B19: GBRAP_160_4528 (protein)
chain: MERLEKIKKKLEETAEEAIELVKGQSAEQRATIVAMEFGSFAMELAEDEEASDEEVDIVLEEEDKLVEEILANPELTDEEIEELIEETVKRIIEKLEKLY

target: GABARAP, O95166; assay: median log2 fold change of GCK-ALFA target abundance (FLAG IP / Myc IP barcode read proportion) (log2 ratio); each designed protein is fused to an ALFA-tag nanobody in HEK293 cells to bring the named protein to FLAG-tagged glucokinase (GCK); Myc marks an untargeted standard; higher = target protein stabilised (more abundant); settings: target protein: 3xFLAG-MCP-GCK-ALFA reporter; HEK293 landing pad (RPLP)
Sequence (O95166 whole entry, the tested form may be a part): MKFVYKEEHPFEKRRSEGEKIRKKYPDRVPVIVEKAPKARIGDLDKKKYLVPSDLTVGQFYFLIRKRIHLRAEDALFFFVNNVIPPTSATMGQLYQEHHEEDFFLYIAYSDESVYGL
Outline: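 Sequencing of reverse-transcribed, amplified circular RNA barcodes from anti-FLAG and anti-Myc immunoprecipitates provided the readout for an ALFA-nanobody-fused binder library recombined into HEK293 landing-pad cells. Those cells were induced with 2 μg mL^−1 doxycycline, transfected with a plasmid expressing a FLAG-tagged target and a Myc-tagged standard, and lysed after 48 h. Target abundance is the per-binder median log2 ratio of FLAG to Myc barcode read proportions. Only barcodes at a proportion of ≥10^−7 in both replicates and binders with ≥3 barcodes per replicate were kept, with a 10^−6 pseudocount added before the two replicates were pooled.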

B1 and B2 are within 0.2 log units of each other in “median log2 fold change” value: -0.488 for the first, -0.381 for the second.

Going from B3 to B4, the “median log2 fold change” value rises from -0.362 to 0.267.

First: B5
Second: B6
The “median log2 fold change” value of the first is lower: -0.286 for the first, 0.189 for the second.

First: B7
Second: B8
The “median log2 fold change” value of the first is higher: -0.0177 for the first, -0.245 for the second.

B9 and B10 are within 0.2 log units of each other in “median log2 fold change” value: 0.00808 for the first, -0.148 for the second.

B11 and B12 are within 0.2 log units of each other in “median log2 fold change” value: 0.0984 for the first, 0.136 for the second.

B13 and B14 are within 0.2 log units of each other in “median log2 fold change” value: 0.0599 for the first, 0.242 for the second.

B15 and B16 are within 0.2 log units of each other in “median log2 fold change” value: 0.2 for the first, 0.163 for the second.

Compared with B17, B18 is higher in “median log2 fold change” value: -0.193 for the first, 0.167 for the second.

In the case of B19, the “median log2 fold change” value is reported as -0.278.

From the supplement of paper PMC12632987
